The campaign covered roughly 2,200 compounds. Fewer than 10 were called active. The list shows a part of the results. Where no call is shown, the source marks the result inconclusive.

This assay has as its target GTPase KRas (Homo sapiens) (UniProt P01116). The assay is described as follows: Covalent labelling of cysteine mutants by fragments, read by mass spectrometry (AID 2202238). Also on record: protein at 5 µM with 500 µM competing thiol for 1.5 h. Particulars: KRAS G12D cysteine mutants, disulfide tethering, MALDI-TOF labeling; stronger effect = higher value; H27C mutant labeling; fragment at 500 µM.
UniProt P01116, sequence (P01116 whole entry, looked up, the tested form may be a part): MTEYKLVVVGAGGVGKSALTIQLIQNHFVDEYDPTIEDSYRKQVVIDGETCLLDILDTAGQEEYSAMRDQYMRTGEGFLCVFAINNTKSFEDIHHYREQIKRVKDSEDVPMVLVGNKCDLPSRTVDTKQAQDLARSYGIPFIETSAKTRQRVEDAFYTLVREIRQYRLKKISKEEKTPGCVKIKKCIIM
`O=C(NCCS)C1CN(C(c2ccccc2)c2ccccc2)C1` displayed a percent labeling of 24%.
`O=C(NCC1CCCCN1C(=O)CCS)c1ccccc1` (stereo not drawn) showed a percent labeling of 37.3%.
As for `O=C(CCCc1ccc(F)c(F)c1)NCCS`, the figure is 28.8%; as for `O=C(CNC(=O)Cc1ccc(O)cc1)NCCS`, 27.7%; as for `Cc1csc2nc(CC(=O)NCCS)cn12`, 26.5%.
The figure for `O=C(NCCS)c1cc(Cc2ccccc2)[nH]n1` is 29.8%; for `O=C(CCS)Nc1ccccc1Oc1cccc(F)c1` it is 29.2%; for `CC(C)(C)OC1CC(CC(=O)NCCS)C1(C)C` (stereo not drawn) it is 32.3%.
The compound `O=C(CCc1nnc(C2CC2)n1-c1ccccc1)NCCS` came in with a percent labeling of 33.6%.
Consider `COc1ccc(C(=O)NCCS)cc1-n1cnnn1`, for which the percent labeling was determined as 42.9%.
As for `O=C(NCCS)c1cccc(NC(=O)c2ccc(Br)cc2)c1`, the figure is 10.1%; as for `O=C(CCS)N1CCC2(C=Cc3ccccc3O2)CC1`, 51.3%; as for `CN1CCN(Cc2ccc(NC(=O)CCS)c(F)c2)CC1`, 58.6%.
As for `N#CCc1ccc(S(=O)(=O)N2CCC(C(=O)NCCS)CC2)cc1`, the figure is 27.6%; as for `O=C(CCS)N1CCN(Cc2coc(-c3ccccc3)n2)CC1`, 38.7%.
The figure for `O=C(CCS)NCCNc1ncnc2sccc12` is 38.6%; for `O=C(NCCS)C1CCOC2(CCOCC2)C1` (stereo not drawn) it is 28.9%; for `NC(=O)c1cc(O)ccc1NC(=O)CCS` it is 34.8%.
Compound `Cc1cc(COc2ccc(C(=O)NCCS)cc2Br)no1` registered a percent labeling of 19.5%.
Compound `CN(Cc1cnn(Cc2ccccc2)c1)C(=O)CCS` registered a percent labeling of 37.8%.
Take `O=C(NCCS)c1nc2n(c1Cl)CCCC2`: the percent labeling was determined as 38.8%.
The figure for `Cn1nc(C2CCCN(C(=O)CCS)C2)nc1N` (stereo not drawn) is 36.6%; for `O=C(CCS)N1CCSc2c([nH]c3ccccc23)C1` it is 34.5%; for `O=C(CCS)N1CCN(c2cccs2)C(=O)C1` it is 35.4%.
As for `O=C(CCn1nc2ccccn2c1=O)NCCS`, the figure is 21.9%; as for `O=C(Cc1coc(-c2ccccc2)n1)NCCS`, 24.8%.
As for `Cc1c(C(=O)NCCS)oc2ccc(Br)cc12`, the percent labeling was found to be 22.2%.
In the case of `O=C(CCS)NC1CC2(CCC2)Oc2ccc(Br)cc21` (stereo not drawn), the percent labeling amounted to 30.9%.
In turn, `CCc1nc2ccc(Cl)cn2c1C(=O)NCCS` gave a percent labeling of 44.3%.
As for `COc1c(C)cnc(CN(C)C(=O)CCS)c1C`, the figure is 34.2%; as for `CC(C)(C(=O)NCCS)c1cccc(C(F)(F)F)n1`, 36.3%.
The figure for `Cn1nc(-c2cccnc2)cc1C(=O)NCCS` is 49.3%; for `Cc1oc(-c2cnn(C)c2)nc1C(=O)NCCS` it is 45%; for `O=C(CCNC(=O)c1cc(F)ccc1Br)NCCS` it is 40%.
The figure for `CC1(CNC(=O)CCS)OCCc2sccc21` (stereo not drawn) is 32.1%; for `Cn1nccc1C1=CC2CCC(C1)N2C(=O)CCS` (stereo not drawn) it is 38.2%; for `O=C(NCCS)C1CC(O)CN1c1ccncn1` (stereo not drawn) it is 27.1%.
Compound `O=C(NCCS)c1cc(Cl)nn1-c1ncccc1Cl` came in with a percent labeling of 44.3%.
The figure for `COC(=O)c1conc1C1CCN(C(=O)CCS)CC1` is 51.9%.
As for `CCN(CC)Cc1ccccc1CNC(=O)CCS`, the figure is 49.1%; as for `Cc1cccc(-c2ccc(C(=O)NCCS)n2C)c1`, 23.4%.
With `CC(NC(=O)NCc1ccc(C(=O)NCCS)o1)c1cccs1` (stereo not drawn), the percent labeling amounted to 17.7%.
The figure for `O=C(Cc1cc(Cl)c2c(c1)OCCCO2)NCCS` is 41.2%; for `N#Cc1cc(NC(=O)CCS)ccc1OC(F)F` it is 41.9%; for `Cc1nc(C(=O)NCCS)c(-c2ccccc2)s1` it is 28.7%.
As for `O=C(CC1CCC(C(F)(F)F)CC1)NCCS` (stereo not drawn), the figure is 28.1%; as for `CC1(C)Cc2ccc(C(=O)NCCS)c(O)c2O1`, 23.6%.
As for `CN(Cc1nc2ccccc2[nH]1)C1CCN(C(=O)CCS)CC1`, the figure is 42.1%; as for `Cc1nc2ccccc2c(C)c1C(=O)NCCS`, 40%; as for `O=C(CCS)NCc1nnc2n1CCNC2=O`, 18.1%.
Turning to `COc1cccc2c(=O)c(C)c(C(=O)NCCS)[nH]c12`, the percent labeling is 41.4%.
As for `O=C(CCS)NCCn1nc2ccccn2c1=O`, the figure is 24.1%; as for `O=C(CCS)Nc1cn(Cc2ccccc2)nn1`, 38.6%.
As for `O=C(Cn1ncc2ccccc2c1=O)NCCS`, the figure is 29.4%; as for `O=C(CCS)NCCc1cccc(C(F)(F)F)n1`, 34.6%; as for `CC(CC(=O)NCCS)Cc1ccc(Cl)cc1` (stereo not drawn), 23%.
As for `O=C(CCS)NCCc1nc2ccc(F)cc2[nH]1`, the figure is 37%; as for `O=C(CCS)Nc1cnc(N2CCOCC2)c(Br)c1`, 38.8%; as for `COc1c(C(=O)NCCS)sc(Cl)c1Cl`, 21.2%.
Consider `O=C(CCS)Nc1ccn(CCOCCO)n1`, for which the percent labeling turned out to be 28.2%.
Compound `O=C(NCCS)C1C2C=CC(C2)C1c1ccccc1` (stereo not drawn) came in with a percent labeling of 16.3%.
As for `O=C(NCCS)c1cc(Br)cn(C2CC2)c1=O`, the figure is 36.8%.
In turn, `CC(C)(C)OC(=O)N1CCC12CCN(C(=O)CCS)CC2` displayed a percent labeling of 37%.
With `O=C(CC1COCCN1CC(F)(F)F)NCCS` (stereo not drawn), the percent labeling is 25.8%.
As for `O=C(NCCS)c1ccc(-n2nccc2-c2ccc(F)cc2)cc1`, the figure is 31%; as for `Cc1cc(C)n(-c2ccc(Cl)c(C(=O)NCCS)n2)n1`, 24.3%.
`Cc1ccc(C(O)(CC(=O)NCCS)C(F)(F)F)o1` (stereo not drawn) showed a percent labeling of 34.6%.
In turn, `O=C(NCCS)c1c[nH]cc(C(F)(F)F)c1=O` registered a percent labeling of 35.5%.
As for `COc1c(F)c(F)cc2c(=O)c(C(=O)NCCS)cn(C3CC3)c12`, the figure is 18.5%.
`COc1ccc(CCN(C)C(=O)CCS)cc1OC`: the percent labeling was found to be 39.8%.
As for `Cn1nccc1C1(O)CN(C(=O)CCS)C1`, the figure is 35.3%.
As for `O=C(Cc1scnc1-c1ccccc1)NCCS`, the figure is 32.1%; as for `Cn1cc(-c2nc(C(=O)NCCS)cs2)cn1`, 50%; as for `O=C(Cc1cscc1Br)NCCS`, 39.8%.
The figure for `COc1ccc(-c2oc(C)cc2C(=O)NCCS)cc1` is 26.2%; for `O=C(CCS)N(CCO)Cc1cccnc1Cl` it is 35.8%; for `O=C(CCS)N1CCc2[nH]cc(Br)c(=O)c2C1` it is 33.7%.
`O=C(Cc1ccccc1OC1CCOC1)NCCS` (stereo not drawn) showed a percent labeling of 30.8%.
`O=C(CCS)NCc1ccc(N2CCCNC2=O)cc1` returned a percent labeling of 41%.
The figure for `Cc1nnc2ccc(C3CCN(C(=O)CCS)CC3)nn12` is 45%; for `O=C(CCc1ccnc2ccccc12)NCCS` it is 30.7%; for `O=C(CCS)N1CCC(O)(c2ccccc2)CC1` it is 39.7%.
The figure for `CN(C)CCOc1ccccc1NC(=O)CCS` is 48.5%; for `CC1CN(S(C)(=O)=O)C(C)CN1C(=O)CCS` (stereo not drawn) it is 45.3%.
`Cc1cccc(C)c1N1CCN(C(=O)CCS)CC1` registered a percent labeling of 19.1%.
The figure for `CCN(Cc1nc2ccsc2c(=O)[nH]1)C(=O)CCS` is 38%.
The figure for `Cn1cc(C(=O)NCCS)c2nc(-c3ccccc3)ccc21` is 29%; for `CCOCc1nc(C)c(C(=O)NCCS)s1` it is 41.6%; for `O=C(NCCS)c1ccc(OCc2ccccc2)cn1` it is 22.3%.
The figure for `Cc1c(NC(=O)CCS)cnn1C1CCCC1` is 37.5%; for `O=C(CCS)NC1(CO)CC2(CCOCC2)C1` it is 22.8%; for `O=C(CC1CCS(=O)(=O)C1)NCCS` (stereo not drawn) it is 28.7%.
Compound `O=C(NCCS)C1CC(c2ccc(C(F)(F)F)cc2)C1` (stereo not drawn) came in with a percent labeling of 21.2%.
